# According to PubChem BioAssay AID485294 (National Center for Advancing Translational Sciences (NCATS), 2010):
# Values joined by “and” are separate entries in the source; they are usually repeats but may differ in a detail not shown here. Equal values may be shown once. Screen size: about 370,000 compounds; about 150 (0.041%) were called active. The shares of active, inactive and inconclusive entries below differ from those in the screen. The call rests on the fitted dose curve; in most records, active means well fitted inhibition curve with a large enough effect; inconclusive means small, poorly fitted or top-dose-only effect; inactive means flat fitted curve, though single readings scatter. A potency beside an inconclusive call is a rough fit, not a confirmed value.
# Biological target: Beta-lactamase (Escherichia coli (strain K12)) (UniProt P00811)
# UniProt P00811, sequence (P00811 whole entry, looked up): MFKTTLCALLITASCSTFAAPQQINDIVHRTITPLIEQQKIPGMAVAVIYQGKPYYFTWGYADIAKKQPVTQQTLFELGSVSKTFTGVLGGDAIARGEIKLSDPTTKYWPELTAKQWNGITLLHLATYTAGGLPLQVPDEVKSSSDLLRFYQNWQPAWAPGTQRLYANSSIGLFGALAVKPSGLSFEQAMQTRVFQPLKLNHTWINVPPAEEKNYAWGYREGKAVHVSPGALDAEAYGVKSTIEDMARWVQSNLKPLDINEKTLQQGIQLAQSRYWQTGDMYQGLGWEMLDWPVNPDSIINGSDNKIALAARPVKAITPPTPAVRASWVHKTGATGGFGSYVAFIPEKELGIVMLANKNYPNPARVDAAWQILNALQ
# Assay: qHTS Inhibitors of AmpC Beta-Lactamase (assay with detergent); further: nearly all actives have a fitted effect of over 25% in size;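 on activity change, negative = inhibition: 0% = no-compound wells and -100% = no-enzyme wells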
# Settings: AmpC hydrolysis of nitrocefin, absorbance 480 nm, 0.01% Triton; activity change, negative = inhibition: at 114 µM (top of the series)
# Summary of the method: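 20 mM phosphate pH 7.0 + 0.01% (detergent screen) or 0.0001% Triton X-100; 5.3 nM AmpC reagent; cpd preinc 15 min RT; nitrocefin (800 uM stock) to start; A480 q20 s × 4 min; Activity was normalised to no-enzyme and no-compound control wells.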
# Potency means the concentration at half of the fitted maximal effect; tags describe the fitted curve by direction and shape.
Compound,Potency,"activity change, negative = inhibition"
COc1ccc(C(=O)NCCNc2ccc([N+](=O)[O-])cc2)cc1,"inconclusive: 0.631 µM [inhibitor, full curve, poor fit]",
CN(C)c1ccc(C2=NOC(CN3C(=O)c4ccccc4S3(=O)=O)C2)cc1 (stereo not given),"inconclusive: 2.24 µM [inhibitor, full curve, poor fit]",
CCOc1ccc(-n2c(SCC(N)=O)nnc2-c2cccnc2)cc1,,inactive: 4.33%
O=C(NC1C=CS(=O)(=O)C1)c1sc2ccccc2c1Cl (stereo not given),,inactive: -11.7%
O=C(Nc1ccc(N2CCOCC2)cc1)c1cc(F)c(F)cc1Cl,"inconclusive: 0.708 µM [inhibitor, full curve, poor fit]",
O=[N+]([O-])c1c(Nc2cccc(O)c2)cc(Cl)c2nonc12,,inactive: -12.4%
CC1CCCCN1Cc1cccnc1 (stereo not given),"inconclusive: 50.1 µM [inhibitor, partial curve, poor fit]",
Cc1ccc(NC(=O)C2CC(c3ccc(F)cc3)=NO2)cc1 (stereo not given),"inconclusive: 8.91 µM [inhibitor, full curve, poor fit]",
CN1CCN(c2ccc(N)c(N3CCN(C)CC3)c2)CC1,"inconclusive: 12.6 µM [inhibitor, partial curve, poor fit]",
COc1ccc(OCc2cc(C(=O)N3CCOCC3)no2)c(Cl)c1,,inactive: -12.2%
COc1ccc(NC(=O)C2CC2)cc1-n1cnnn1,"inconclusive: 5.01 µM [inhibitor, single point]",
CCOc1ccc(CN2CCC(C(=O)Nc3cccc(-c4ccn[nH]4)c3)CC2)cc1Cl,,inactive: 2.99%
O=C(Nc1ccc2nc(-c3cccnc3)[nH]c2c1)C12CC3CC(CC(C3)C1)C2,"inconclusive: 35.5 µM [inhibitor, full curve, poor fit]",
COc1ccc(-c2nnc(SCC(=O)N3c4ccccc4Sc4ccccc43)o2)cc1,"inconclusive: 44.7 µM [inhibitor, full curve, poor fit]",
COc1ccc(Nc2nc(N)c3ccccc3n2)c(OC)c1,,inactive: -19%
COC(=O)c1cc2sc(Cl)cc2n1Cc1nc(-c2ccccc2C)oc1C,,inactive: -0.769%
Cc1ccc(NC(=S)NC(=O)c2ccc(F)cc2)cc1S(=O)(=O)Nc1cccc(Cl)c1,,inactive: -3.43%
O=C(Oc1ccccc1)c1cccnc1Oc1ccccc1,active: 39.8 µM,
CCC1CCCCN1CCCNC(=O)c1c(O)nc2cc(C)ccn2c1=O (stereo not given),"inconclusive: 39.8 µM [inhibitor, single point] and inconclusive: 17.8 µM [inhibitor, single point]",
Cc1cccc(C(=O)O/N=C(\N)Cc2cccc3ccccc23)c1,,inactive: -6.62%
CN(Cc1ccco1)c1ncnc2ccc(-c3ccoc3)cc12,inactive,
CCCCN(CC)C(=O)CSc1nc2ccccc2c(=O)n1Cc1ccco1,,inactive: 9.85%
CC(C)Cc1cc(C(=O)NCCN2CCOCC2)no1,"inconclusive: 8.91 µM [inhibitor, full curve, poor fit]",
Cc1ccccc1OCC(=O)OCC(=O)c1c[nH]c2ccccc12,"inconclusive: 50.1 µM [inhibitor, full curve, poor fit]",

Compound,Potency,"activity change, negative = inhibition"
COc1cccc(NC2=Nc3cccc4cccc2c34)c1,"inconclusive: 79.4 µM [inhibitor, partial curve, poor fit]",
CC1C(=O)CC(c2ccccc2)N(C)C1c1ccccc1 (stereo not given),"inconclusive: 44.7 µM [inhibitor, partial curve, poor fit]",
O=C1C(=O)N(CCN2CCOCC2)C(c2ccncc2)/C1=C(/O)c1ccc2c(c1)OCO2 (stereo not given),"inconclusive: 1.78 µM [inhibitor, partial curve, poor fit]",
O=C(CSc1nccn1Cc1ccco1)Nc1ccccc1,,inactive: -0.374%
COc1cccc(C2c3[nH]c4ccccc4c3C[C@H]3C(=O)N(C)CC(=O)N23)c1 (stereo not given in full),,inactive: 2.2%
COc1ccccc1NC(=O)Nc1nc(CC(=O)NC2CCCC2)cs1,"inconclusive: 0.708 µM [inhibitor, full curve, poor fit]",
COc1ccc(OCC(=O)O/N=C(\N)Cc2cccs2)cc1,,inactive: -2.72%
COC(=O)c1cc(S(=O)(=O)N(Cc2ccccc2)C(C)(C)C)c[nH]1,"inconclusive: 0.794 µM [inhibitor, partial curve, poor fit]",
CC(C)Cn1c(CCCNC(=O)c2ccc(F)cc2)nc2ccccc21,"inconclusive: 7.94 µM [inhibitor, full curve]",
COCCNC(=O)CSc1nc2nc(C)cc(C)n2n1,"inconclusive: 79.4 µM [inhibitor, partial curve]",
Cc1nn2c(C)c(C(=O)NCc3cccc(Br)c3)cnc2c1-c1ccccc1,,inactive: -0.874%
C/C(=N\Nc1nc(-c2ccccn2)nc2ccccc12)c1ccc(F)cc1,"inconclusive: 15.8 µM [inhibitor, single point]",
Cc1ccc(Nc2nc(CSc3nnnn3-c3ccccc3)cs2)cc1,,inactive: -0.59%
COCCN(CC(=O)Nc1cccc(C)c1C)C(=O)c1cc2c(s1)CCC2,"inconclusive: 0.562 µM [inhibitor, full curve, poor fit]",
COc1cccc(-n2c(Cc3cc(=O)[nH]c(=O)[nH]3)nnc2SC(C)C)c1,"inconclusive: 112 µM [inhibitor, partial curve, poor fit]",
CC(=O)Nc1ccc(S(=O)(=O)N2CCN(CC(=O)N3CCOCC3)CC2)cc1,"inconclusive: 3.98 µM [inhibitor, single point]",
COc1ccc(N(CC(=O)NC2CC3CCC2C3)S(=O)(=O)c2ccc(C)c([N+](=O)[O-])c2)cc1 (stereo not given),,inactive: -12.1%
CCOc1ccc(C(=O)NCC(c2ccc3c(c2)OCO3)N2CCN(C)CC2)cc1 (stereo not given),,inactive: -2.24%
Cc1nn(C(C)C(=O)N2CCc3ccccc3C2)c(=O)c2cc3occc3n12 (stereo not given),"inconclusive: 5.01 µM [inhibitor, full curve, poor fit]",
Cc1ccc(NC(=O)COc2ccc(/C(N)=N/O)cc2)cc1C,"inconclusive: 7.08 µM [inhibitor, full curve, poor fit]",
COc1ccc(CC(=O)NCC2CCCN(Cc3ccc(F)c(OC)c3)C2)cc1 (stereo not given),"inconclusive: 0.631 µM [inhibitor, full curve, poor fit]",
CC(C)Cc1nc2n[nH]c(N)c2c2c1CCCC2,"inconclusive: 2.82 µM [inhibitor, partial curve, poor fit]",
CCN1C(=O)/C(=C/C=C2/Sc3ccc4ccccc4c3N2CCO)SC1=S,,inactive: -9.06%
CCN(CC)CCOc1ccc(/C(=C(/Cl)c2ccccc2)c2ccccc2)cc1,"inactive and inconclusive: 708 nM [inhibitor, full curve]",

Compound,Potency,"activity change, negative = inhibition"
O=C(O)c1ccc(N/N=C/c2ccc(C(F)(F)F)cc2)cc1,,inactive: -1.71%
CC1CN(C(=O)COC(=O)c2ccc(Cl)c(S(=O)(=O)N3CCCCC3)c2)CC(C)O1 (stereo not given),"inconclusive: 100 µM [inhibitor, partial curve]",
CC(C)NS(=O)(=O)c1ccc(NC(=S)NC(=O)c2cccc([N+](=O)[O-])c2)cc1,,inactive: -11.5%
Cc1nc(N2CCN(c3ccc(Cl)cc3)CC2)[nH]c(=O)c1C,"inconclusive: 0.562 µM [inhibitor, full curve, poor fit]",
O=[N+]([O-])NC1=NCCN1Cc1ccc(Cl)nc1,"inconclusive: 2.82 µM [inhibitor, full curve]",
COc1ccc(-c2noc(CSc3nc4ccccc4c(=O)n3-c3ccc(C)cc3)n2)cc1,"inconclusive: 44.7 µM [inhibitor, full curve]",
CCOC(=O)N1N=C(c2ccc(C)cc2)CC1(O)C(F)(F)F (stereo not given),,inactive: 5.02%
CC1=NN(C(N)=S)C(=O)C1N=Nc1ccccc1C(=O)O (stereo not given),"inconclusive: 89.1 µM [inhibitor, single point]",
COc1ccccc1NC(=S)N1CCN(c2ccc(F)cc2)CC1,"inconclusive: 5.01 µM [inhibitor, full curve]",
Nc1nc(Nc2ccc(Cl)cc2)nc2ccccc12,,inactive: 2.12%
O=C1NC(=O)N(c2ccc(F)cc2)C(=O)/C1=C/c1ccc(N2CCOCC2)cc1,,inactive: 3.4%
O=[N+]([O-])c1cc2c(cc1[N+](=O)[O-])OCCOCCOCCOCCO2,,inactive: 3.75%
CC(=O)N1CC=CC1(CC(C)C)C(=O)NCc1cc(F)cc(C(F)(F)F)c1 (stereo not given),"inconclusive: 1.78 µM [inhibitor, full curve, poor fit]",
CCOC(=O)CSc1nnc([C@H](CC(C)C)NC(=O)OC(C)(C)C)o1,"inconclusive: 2.51 µM [inhibitor, partial curve, poor fit]",
CCNS(=O)(=O)c1ccc(NC(=O)Cc2ccc(F)cc2)cc1,"inconclusive: 28.2 µM [inhibitor, full curve]",
Cc1ccccc1NC(=O)C1CCCN(C(=O)Nc2ccc(F)cc2)C1 (stereo not given),"inconclusive: 35.5 µM [inhibitor, partial curve]",
Cc1ccc(NC(=O)c2cccc3ccccc23)cc1,,inactive: 3.49%
C/C(=N/NC(=O)c1cnccn1)c1ccncc1,,inactive: -3.32%
Cc1ccc(-n2nc3c(c2NC(=O)C2CC2)CS(=O)(=O)C3)cc1,"inconclusive: 5.01 µM [inhibitor, full curve, poor fit]",
COc1cccc(/C=C2\Sc3ccc(C(=O)NCC4CCCO4)cc3N(C)C2=O)c1 (stereo not given),"inconclusive: 25.1 µM [inhibitor, full curve, poor fit]",
COc1ccc([C@@H]2[C@@H]3C(=O)N(C(C)(C)C)C(=O)[C@@H]3[C@]3(Cc4ccc(Cl)cc4)C(=O)N(c4ccc(Br)cc4)C(=O)N23)cc1,"inconclusive: 3.98 µM [inhibitor, full curve]",
Cc1ccccc1NC1=C(Cl)C(=O)OC1OC(C)C (stereo not given),"inconclusive: 35.5 µM [inhibitor, single point]",
